Data taken from a collection of fitness landscapes (doi:10.1016/j.celrep.2020.107928).
The full ranking holds about 81,000 sequences; the median of “one-hybrid fitness for binding parS DNA” is about -0.17, and the highest 2% start at about 0.51. Some of the results follow.

B1: Caulobacter ParB omega fusion; a variant is named by its letters at X, in order, B8GW30 (parent)
chain: MESVVVGEPGMSEGRRGLGRGLSALLGEVDAAPAQAPGEQLGGSREAPIEILQRNPDQPRRTFREEDLEDLSNSIREKGVLQPILVRPSPDTAGEYQIVAGERAWRAAQRAGLKTVPIMVRELDDLAVLEIGIIENVQRADLNVLEEALSYKVLMEKFERTQENIAQTIGKSXSHVANXMRLLXLPDEVQSYLVSGELTAXHARAIAAAADPVALAKQIIEGGLSVRETEALARKAPNLSAGKSKGGRPPRVKDTDTQALESDLSSVLGLDVSIDHRGSTGTLTITYATLEQLDDLCNRLTRGI

Variants of: B1
Assay: one-hybrid fitness for binding parS DNA (scaled: cognate 1, non-cognate 0); higher = stronger binding
Conditions: with parS DNA site
In short: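 Fitness is the rescaled log change in variant-to-wild-type read ratio, measured by Illumina sequencing of plasmids before and after bacterial one-hybrid selection. The scale puts cognate at 1 and non-cognate at 0. Selection of Caulobacter ParB libraries, four specificity codons randomised, took place in E. coli USO with a HIS3 reporter, site 19 bp from the promoter, over 48 hours at 37°C on M9-minus-histidine with 0.1 mM IPTG and 5 mM 3-AT.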

Variant	one-hybrid fitness for binding parS DNA
TRRK	≤ 0.2
GRVG	≤ 0.2
TLTE	≤ 0.2
HMQP	≤ 0.2
QTKQ	≤ 0.2
VMFR	≤ 0.2
AAWS	≤ 0.2
PYHR	≤ 0.2
DMWS	≤ 0.2
EQMR	≤ 0.2
TNED	≤ 0.2
FPCC	≤ 0.2
LATW	≤ 0.2
KDHR	≤ 0.2
VVVF	≤ 0.2
CNTV	≤ 0.2
PEVR	≤ 0.2
RWCD	≤ 0.2
LRAS	≤ 0.2
DPWS	≤ 0.2
RHSH	≤ 0.2
MDNG	≤ 0.2
WRKG	≤ 0.2
EAVG	≤ 0.2
QVFG	≤ 0.2
GVNT	≤ 0.2

Variant	one-hybrid fitness for binding parS DNA
IAPH	≤ 0.2
ALEW	≤ 0.2
PYAT	≤ 0.2
CREE	≤ 0.2
TCEG	≤ 0.2
RGGL	≤ 0.2
PVWW	≤ 0.2
RFDN	0.354
NFHF	≤ 0.2
NHLA	≤ 0.2
TDDD	≤ 0.2
VVAG	≤ 0.2
PKQR	≤ 0.2
NCVD	≤ 0.2
LLIT	≤ 0.2
GDNI	≤ 0.2
RLTN	0.43
TRMG	≤ 0.2
KWMG	≤ 0.2
LPTV	≤ 0.2
QGVS	≤ 0.2
NTWG	≤ 0.2
RHHQ	≤ 0.2
KTKS	≤ 0.2
ILYC	0.39
SYIV	≤ 0.2

Variant	one-hybrid fitness for binding parS DNA
PGNC	≤ 0.2
NKLS	≤ 0.2
LKPE	≤ 0.2
LALP	≤ 0.2
VAFA	≤ 0.2
PYAS	≤ 0.2
YRHW	≤ 0.2
WQAR	≤ 0.2
DCDD	≤ 0.2
WRVA	≤ 0.2
TFGC	≤ 0.2
RNEC	0.613
RKYY	0.377
CHHF	≤ 0.2
DGMR	≤ 0.2
RQTN	0.43
KVAV	≤ 0.2
CSKY	≤ 0.2
TAPH	≤ 0.2
NADD	≤ 0.2
MQPR	≤ 0.2
WSPY	≤ 0.2
SCHC	≤ 0.2
GSVE	≤ 0.2
QHAY	≤ 0.2
MSPT	≤ 0.2

Variant	one-hybrid fitness for binding parS DNA
PVRL	≤ 0.2
YDNV	≤ 0.2
TSCN	≤ 0.2
MPIL	≤ 0.2
TSKV	≤ 0.2
RGDN	≤ 0.2
LGIF	≤ 0.2
YLGR	≤ 0.2
HSVC	≤ 0.2
PMRA	≤ 0.2
LYGG	≤ 0.2
SASD	≤ 0.2
NAKQ	≤ 0.2
QWRS	≤ 0.2
PERE	≤ 0.2
CEVT	≤ 0.2
YHLR	≤ 0.2
WKLW	≤ 0.2
HSKN	≤ 0.2
RDVC	≤ 0.2
YDPL	≤ 0.2
CGRF	≤ 0.2
DHCF	≤ 0.2
NLCV	≤ 0.2
LDAF	≤ 0.2
LDVT	≤ 0.2

Variant	one-hybrid fitness for binding parS DNA
QNYY	≤ 0.2
VPFS	≤ 0.2
QCRA	≤ 0.2
NETK	≤ 0.2
YQSD	≤ 0.2
AFSL	≤ 0.2
DRFN	≤ 0.2
RSAK	≤ 0.2
IYHW	≤ 0.2
HPPD	≤ 0.2
VSPD	≤ 0.2
NEAL	≤ 0.2
NLRC	≤ 0.2
FSLF	≤ 0.2
HGAN	≤ 0.2
KWHC	≤ 0.2
YGSW	≤ 0.2
EKYT	≤ 0.2
QVYG	≤ 0.2
QQHS	≤ 0.2
RGQA	0.364
CAWG	≤ 0.2
QGII	≤ 0.2
TMRG	≤ 0.2
RKFS	0.927
HYMY	≤ 0.2

Variant	one-hybrid fitness for binding parS DNA
IFNC	≤ 0.2
QQYT	≤ 0.2
MACA	≤ 0.2
WPQC	0.245
LGSF	≤ 0.2
ICRT	≤ 0.2
PGSW	≤ 0.2
ECGS	≤ 0.2
WPES	≤ 0.2
WTVC	≤ 0.2
VWSR	≤ 0.2
SLDT	≤ 0.2
GAMW	≤ 0.2
SMAR	≤ 0.2
MQCS	≤ 0.2
ACHH	≤ 0.2
VLGG	≤ 0.2
PFHL	≤ 0.2
WTLN	≤ 0.2
TGTR	≤ 0.2
APPD	≤ 0.2
KNFR	≤ 0.2
VDYV	≤ 0.2
